Measured values reported in PubChem BioAssay AID1159614 (National Center for Advancing Translational Sciences (NCATS), 2016).
Hit rate of the full screen: of about 45,000 compounds, about 65 (0.1%) were called active. The call rests on the fitted dose curve; in most records, active means well fitted activation curve with a large enough effect; inconclusive means small, poorly fitted or top-dose-only effect; inactive means no such curve, though single readings can be large or run the other way. The list shows a part of the results.

Each molecule was assayed against Galactocerebrosidase (Homo sapiens) (UniProt P54803) (assay: A Novel Cell-Based Assay to Identify Small Molecules for B -Galactocerebrosidase). Conditions: 145M-Twi-hGALC-G270D cells (Twitcher mouse brain line with human GALC G270D), HMU-beta-Gal fluorescence, 48 h; series mostly up to 57.5 µM; activation: at the top concentration.
Method in brief: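 Brain-derived Twitcher mouse 145M-Twi cells stably expressing human GALC-G270D or wild-type GALC, treated live, then residual GALC activity read by fluorescence of HMU-b-Gal substrate (0.1 mM final) in citrate-phosphate buffer pH 5.2 with sodium taurocholate. Signal increase indicates enhancement.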
Further: 0% is about no effect; nearly all actives have a fitted effect of over 65% in size.

Sequence of UniProt P54803 (P54803 whole entry, looked up): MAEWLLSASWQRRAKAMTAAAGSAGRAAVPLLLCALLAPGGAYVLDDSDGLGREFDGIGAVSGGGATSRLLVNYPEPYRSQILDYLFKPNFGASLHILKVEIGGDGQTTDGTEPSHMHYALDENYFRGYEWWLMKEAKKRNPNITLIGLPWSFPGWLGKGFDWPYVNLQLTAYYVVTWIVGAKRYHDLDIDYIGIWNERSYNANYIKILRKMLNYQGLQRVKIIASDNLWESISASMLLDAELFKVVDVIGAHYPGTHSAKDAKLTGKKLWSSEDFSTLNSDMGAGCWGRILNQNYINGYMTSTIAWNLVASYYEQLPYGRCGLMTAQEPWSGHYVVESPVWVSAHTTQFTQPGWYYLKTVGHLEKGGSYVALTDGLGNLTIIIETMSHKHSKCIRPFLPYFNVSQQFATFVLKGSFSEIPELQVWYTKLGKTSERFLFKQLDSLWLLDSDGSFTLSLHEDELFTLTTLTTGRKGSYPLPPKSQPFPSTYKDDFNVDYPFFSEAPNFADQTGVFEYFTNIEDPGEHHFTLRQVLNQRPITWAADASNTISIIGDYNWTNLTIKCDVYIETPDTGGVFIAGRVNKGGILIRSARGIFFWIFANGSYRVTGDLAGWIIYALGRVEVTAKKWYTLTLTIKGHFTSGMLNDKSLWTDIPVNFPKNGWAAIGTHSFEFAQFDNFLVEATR

activation, inactive:
CCOc1ccc(N2CC(c3nc4ccccc4n3CCOc3ccc(OC)cc3)CC2=O)cc1 (configuration not stated) -20.2%, CC(C)Cc1nn2cc(-c3cccc(Br)c3)nc2s1 -5.37%, CC(NC(=O)CCc1cn(Cc2ccccc2Cl)c2ccccc12)c1ccccc1 (configuration not stated) -3.61%, O=C(NCCc1ccccc1)c1ccc(CSc2nc3cccnc3n2Cc2ccccc2)cc1 -8.62%, COc1ccc(C(CC(=O)Nc2ccccn2)N2Cc3ccccc3C2=O)cc1OC (configuration not stated) -2.28%, O=C(CCS(=O)(=O)c1ccccc1)N(Cc1cccnc1)c1nc2c(F)cccc2s1 -3.66%, CCOC(=O)c1nnc2c(-c3ccc(Cl)cc3)c(C)nn2c1N -13.6%, CCc1ccccc1NC(=O)Cn1nnc(C(=O)NCc2ccco2)c1N -4.85%, Cc1ccc(-c2nc(CS(=O)(=O)CC(=O)NC(C)CCc3ccccc3)c(C)o2)cc1 (configuration not stated) -20.4%, COc1ccc(/C=C/c2nc(C#N)c(N3CCC(C(N)=O)CC3)o2)cc1OC 0.116%, O=C(NCCO)C(=O)NCC(c1ccc2c(c1)OCO2)N1CCOCC1 (configuration not stated) -19.6%, CC(C)CN(c1ccccc1)S(=O)(=O)c1nnc(NC(=O)C2CCCCC2)s1 16.6%, CCOc1ccc(-c2cc3nc(C4CCN(C(=O)OC(C)(C)C)CC4)c(C(=O)Nc4cccc(C(F)(F)F)c4)cn3n2)cc1 -8.98%, Cc1nc2cccnc2n1-c1cccc(C(=O)NCc2cccc(Cl)c2)c1 -43.1%, c1ccc2c(c1)CCc1ccccc1N2 -9.47%, COc1ccc(Br)cc1CNCc1c(C(=O)O)c(C)n(Cc2ccccc2C)c1C -10%, COc1ccc(-c2nc3scc(CCNS(=O)(=O)c4cccs4)n3n2)cc1 -3.85%, Cc1ccc(-n2c(=O)c3c4c(sc3n(CC(=O)C(C)(C)C)c2=O)CCCCC4)cc1C -14%, COc1cccc(C(=O)NC2=NC(c3ccccc3F)CC(=O)N2)c1 (configuration not stated) -7.6%, COc1cc(Cl)c(NS(=O)(=O)c2cc3[nH]c(=O)c(=O)[nH]c3cc2C)c(OC)c1 -9.92%, Cc1cc2c(cc1S(=O)(=O)CCC(=O)N1CCN(c3ccccc3)CC1)OCC(=O)N2 3.88%, CCCCCOC(=O)CSc1nc2sc3c(c2c(=O)n1Cc1ccccc1)CC(C)(CC)OC3 (configuration not stated) 2.61%, CCS(=O)(=O)N1CC(=O)N(c2cc(Cl)ccc2C)C(C)(C(=O)NC2CCCCCC2)C1 (configuration not stated) -8.41%, O=C(Nc1ccc2c(c1)CCCN2C(=O)c1cccs1)c1ccccc1C(F)(F)F -5.95%, COC(=O)c1ccc(NC(=O)c2c(-c3ccccc3)c(-c3ccccc3)nn(C)c2=O)cc1 -6.51%, CCOC(=O)Cc1ccc(NC(=O)Nc2nnc(N3CCCCC3C)s2)cc1 (configuration not stated) -10.8%, CCc1ccc(Nc2nc(-c3cc4cccc(OC)c4oc3=O)c(CC)s2)cc1 -12.8%, CCOC(=O)c1ccc(NC(=O)Nc2cc3c(cc2N2CCCCC2)n(CC)c(=O)n3CC)cc1 -4.4%, CCC(=O)N1CCc2cc(Br)cc(S(=O)(=O)NCCc3ccc(C)cc3)c21 -4.77%, Cc1cccc(OC(=O)c2snnc2C)c1C -12%, CCCN(C(=O)c1cc2c(s1)-c1ccccc1OC2)c1ccc(C(C)C)cc1 0.0582%, CCOC(=O)C1CCN(C(=O)c2ccc(C)c(NC(=O)c3nsc4ccccc34)c2)CC1 -21.4%, CCC(=O)N1c2ccc(S(=O)(=O)CCC(=O)NCc3ccc(OC)cc3)cc2CC1C (configuration not stated) -18.6%, Cc1ccc(NC(=O)C2CCC(CNS(=O)(=O)c3cccs3)CC2)cc1C (configuration not stated) -13%, CC(C)c1ccc(S(=O)(=O)NCc2nc3cccnc3n2Cc2ccc(F)cc2)cc1 -11%, CC1=C(C(=O)Nc2cc(C)cc(C)c2)C2(CCCCC2)OC1=O -2.32%, COc1ccc(NC(=O)COCc2cc(-c3ccco3)on2)cc1Cl 6.11%, O=C(Nc1ccc(F)c(F)c1)c1ccc(=O)n(Cc2ccc(F)cc2)c1 -7.18%, O=S(=O)(Nc1ccc(OC(F)(F)F)cc1)c1ccc(N2CCCCS2(=O)=O)cc1 -24%, Cc1cc(C)c(S(=O)(=O)NCC(c2ccco2)S(=O)(=O)c2ccccc2)c(C)c1 (configuration not stated) -16.2%, CCc1cccc(C)c1Nc1c(-c2cccs2)nc2ncccn12 -16.4%, O=C(Cn1c(=O)c2ccccc2n(CC(=O)Nc2ccccc2F)c1=O)NCCc1ccccc1 -19.2%, Cc1cc(C)c(NC(=O)CCN2CCCCC2)c(C)c1 -14.5%, COc1cccc(C2C(=O)N(C3CCCCC3)CC(=O)N2CCc2ccc(OC)c(OC)c2)c1 (configuration not stated) -4.79%, Nc1nc(N)c(S(=O)(=O)c2ccccc2)c(Nc2ccccc2)n1 3.1%, COc1cc(OC)c(NC(=O)CCc2nc(C3=CCN(Cc4cccc(Cl)c4)CC3)no2)cc1Cl 1.01%, CCc1ccc(-n2c(=O)c3sc4ccccc4c3n(CC(=O)NC3CCCC3)c2=O)cc1 -13.1%, Cc1nc2nc(CNC(=O)OC(C)(C)C)nn2c(C)c1CCC(=O)NCc1ccccc1Cl -12.2%, COc1ccc(-c2cc(C(=O)Oc3ccc(Br)cc3)c3ccccc3n2)cc1 -10.6%, Cc1ccc(NC(=O)c2oc3ccccc3c2NC(=O)C2CCCCC2)cc1 -20.2%, CCc1ccc2c(c1)c(=O)c(S(=O)(=O)c1ccc(F)cc1)cn2CC(=O)Nc1ccccc1OC -10.6%, CC(C)c1ccc(NC(=O)CN2C(=O)C3(SCC(=O)N3c3ccc(F)cc3)c3ccccc32)cc1 (configuration not stated) -15.7%, Cc1ccc(N2CCn3c2nc2c3c(=O)n(Cc3cccc(Cl)c3)c(=O)n2C)cc1C -2.61%, O=C(Nc1ccc(Cl)cc1)c1ccc2c(c1)N(Cc1ccccc1)CCS2 -15.1%, COc1ccc(NC(=O)Cn2c(=O)n(Cc3ccco3)c(=O)c3sc4ccccc4c32)cc1Cl -7.45%, CCSC1=NC2(CCN(C(=O)NC3CCCCC3)CC2)N=C1c1ccc(OC)cc1 -0.958%, Cc1nc(CC(=O)Nc2ccc(C(N)=O)cc2)cs1 -2.16%, CC(C(=O)NCc1ccccc1)n1ccc2cc(S(=O)(=O)N3CCCC3)ccc21 (configuration not stated) -10%, CCOc1ccccc1CNC(=O)CCc1cn(C)c2ccccc12 -27.7%, CCCC12CN3CC(CCC)(CN(C1)C3c1c[nH]c3ccc(OC)cc13)C2=O (configuration not stated) -12.4%, CCN(C(=O)CSc1nc2ccccc2nc1Cc1ccccc1OC)c1ccccc1 22.5%, O=C(CN1C(=O)CCSc2ccc(S(=O)(=O)N3CCCC3)cc21)Nc1ccccc1Cl -12.4%
